Source: the supplement of paper PMC12217912
This is one part of the list. Sequences were assembled here from the parent chain. Inactive controls read about 0.05.

B1: TEV protease; numbered along this chain (parent)
chain: MGESLFKGPRDYNPISSSICHLTNESDGHTTSLYGIGFGPFIITNKHLFRRNNGTLVVQSLHGVFKVKDTTTLQQHLVDGRDMIIIRMPKDFPPFPQKLKFREPQREERICLVTTNFQTKSMSSMVSDTSCTFPSGDGIFWKHWIQTKDGQCGSPLVSTRDGFIVGIHSASNFTNTNNYFTSVPKNFMELLTNQEAQQWVSGWRLNADSVLWGGHKVFMVKPEEPFQPVKEATQL

Variants of: B1
Experiment: raw area under fraction-flipped curve 0-4 h after induction (AUC4h, not background-subtracted), DNA-recorder readout of cleavage of the substrate (dimensionless); higher = more cleavage of the substrate by the protease variant
Details: temperature: 34 °C; time window: 0-4 h after rhamnose induction
Protocol: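 In vivo DNA recorder in E. coli TOP10(DE3) ΔrhaA at 34 °C. Each TEVp single-site mutant (parent TEVp 0) is paired with a single-site variant of the 7-mer TEVs (canonical ENLYFQ|S). The substrate sits between flexible linkers in a Bxb1-sfGFP-TEVs-SsrA fusion, so cleavage stabilises Bxb1 and speeds flipping of a recombination array, read by NGS. The value is the raw area under the fraction-flipped curve over 0-4 h after rhamnose induction (AUC4h), with ≥20 reads per time point. It is not background-subtracted; inactive controls average about 0.047.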
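Further: Bxb1 expression induced with 0.2% (w/v) L-rhamnose at OD600 near 0.5, cultures sampled hourly, flipped fraction per protease–substrate barcode pair counted by paired-end Illumina sequencing.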

| Variant | area with substrate ENLAFQS | area with substrate ENLDFQS | area with substrate ENLEFQS | area with substrate ENLFFQS | area with substrate ENLGFQS | area with substrate ENLHFQS | area with substrate ENLIFQS | area with substrate ENLKFQS | area with substrate ENLLFQS | area with substrate ENLMFQS | area with substrate ENLNFQS | area with substrate ENLQFQS | area with substrate ENLRFQS | area with substrate ENLSFQS | area with substrate ENLVFQS | area with substrate ENLWFQS | area with substrate ENLCFQS | area with substrate ENLPFQS | area with substrate ENLTFQS |
| --- | --- | --- | --- | --- | --- | --- | --- | --- | --- | --- | --- | --- | --- | --- | --- | --- | --- | --- | --- |
| H29Y | 0.0592 | 0.0517 | 0.0461 | 0.0655 | 0.0696 | 0.0626 | 0.075 | 0.0973 | 0.0711 | 0.0809 | 0.0617 | 0.0836 | 0.0657 | 0.067 | 0.115 | 0.0811 | – | – | – |
| E25A | 0.0664 | 0.0591 | 0.0611 | 0.0938 | 0.0601 | 0.0896 | 0.0996 | 0.0642 | 0.0865 | – | 0.0756 | 0.0686 | 0.0738 | 0.0729 | 0.071 | – | 0.0585 | 0.0782 | 0.078 |
| Q146N | 0.0702 | 0.0624 | 0.052 | 0.0921 | – | 0.0817 | – | – | – | – | 0.0283 | 0.0828 | 0.0747 | 0.052 | – | 0.0654 | – | – | – |
| R160A | 0.0625 | 0.0735 | 0.109 | 0.0835 | – | 0.0774 | 0.0755 | 0.0772 | – | 0.0713 | 0.0531 | – | 0.0829 | 0.0531 | 0.0928 | – | – | 0.0506 | – |
| V113N | 0.0646 | 0.0516 | – | 0.0624 | 0.0545 | 0.0558 | 0.0662 | 0.0278 | – | – | 0.0611 | 0.0565 | 0.0534 | 0.0695 | – | 0.0496 | – | – | – |
| G28H | 0.0682 | 0.0626 | 0.064 | 0.0776 | – | 0.0694 | 0.0778 | 0.0651 | 0.0865 | – | – | – | 0.0738 | 0.0688 | – | 0.0693 | – | 0.0687 | – |
| L22A | 0.0418 | 0.0568 | 0.0582 | 0.0546 | – | 0.0571 | – | 0.0576 | – | – | 0.0504 | – | 0.0573 | 0.0525 | – | 0.024 | 0.063 | 0.0572 | – |
| Q151S | 0.0575 | – | 0.0798 | 0.0809 | 0.0656 | 0.0603 | – | 0.054 | 0.0887 | – | 0.0644 | – | – | 0.0735 | – | 0.0623 | – | – | – |
| V200E | 0.0585 | 0.0667 | – | 0.0578 | – | – | – | – | – | – | 0.0972 | – | – | – | – | 0.0664 | – | – | 0.0234 |
| S169N | 0.0474 | 0.058 | 0.0414 | 0.0824 | – | 0.0582 | 0.0634 | 0.0588 | 0.0519 | 0.0623 | 0.0666 | 0.0498 | 0.0601 | 0.0607 | 0.0629 | 0.0627 | 0.0597 | 0.0451 | – |
| I85C | 0.0298 | 0.0582 | 0.0564 | 0.068 | 0.0611 | 0.0326 | – | 0.102 | – | 0.0701 | 0.0534 | – | 0.0549 | 0.0574 | 0.0661 | 0.0548 | – | 0.0735 | – |
| K100T | 0.0663 | 0.0429 | – | 0.0976 | – | 0.0784 | 0.114 | 0.09 | – | – | 0.0375 | 0.0566 | – | 0.0533 | – | 0.0787 | 0.0774 | – | – |
| G63I | 0.0477 | 0.0504 | 0.0852 | 0.0827 | – | 0.0531 | 0.07 | 0.0805 | – | – | 0.0611 | – | – | 0.0781 | – | – | – | 0.0451 | – |
| I167F | 0.0601 | 0.0568 | 0.063 | 0.0642 | – | 0.067 | 0.0568 | 0.0577 | 0.0609 | 0.0612 | 0.0595 | 0.0494 | 0.0707 | 0.0602 | 0.055 | 0.0601 | 0.061 | 0.0662 | – |
